The values below come from ChEMBL document CHEMBL1156829.

Whole data set: some 5,400 compounds, median “IFI” near 2, cut for the highest 2% near 22. This is one part of the list.

The nature of this assay: NOVARTIS: Inhibition Frequency Index (IFI) - the number of HTS assays where a compound showed > 50% inhibition/induction, expressed as a percentage of the number of assays in which the compound was tested. The class given is functional.
`CCCOC(=O)C1=C(C)NC2=C(C(=O)CC(c3ccc(OC)cc3)C2)C1c1ccccc1F` (stereo unspecified) displayed an IFI of 3.53%.

`Cc1ccc(-n2cc(C(=O)N(C)Cc3ccccc3)c3ccccc3c2=O)cc1C` showed an IFI of 0%. The figure for `CC(C)(C)C1=NN(CC(=O)Nc2ccc3c(c2)OCO3)C(=O)c2cc3ccccc3n2C1` is 0%. The figure for `Cc1ccc(CN2CCC(O)(c3ccc4oc(C(=O)NCCc5cccc(F)c5)cc4c3)CC2)cc1` is 3.03%; for `COc1ccc(C2N=C(N)N=C(N)N2c2ccc(Cl)cc2)cc1OC` (stereo unspecified) it is 1.43%. As for `CCCCCCN(C(=O)c1cccc(C(F)(F)F)c1)C(CC)c1nc2ccccc2c(=O)n1-c1ccccc1OC` (stereo unspecified), the IFI stood at 0.917%.

`CCCN(CC(=O)Nc1cc(C(C)(C)C)nn1-c1cccc(C)c1)C(=O)c1cccc([N+](=O)[O-])c1` returned an IFI of 3.6%. On to `O=C(NCCC1=CCCCC1)c1ccc2c(=O)n(-c3ccccc3)c(SCc3nc4ccccc4[nH]3)nc2c1`, for which the IFI was found to be 1.19%. Next, `NC(=S)NN=Cc1cc([N+](=O)[O-])ccc1O`: 0%.

The compound `CC[C@@H](C(=O)[C@@H](C)C(O)[C@H](C)CCc1ccc(C)c(O)c1C(=O)O)C1O[C@](CC)(C2CC[C@](O)(CC)[C@H](C)O2)C[C@@H]1C` (stereo partly specified) yielded an IFI of 9.84%. The figure for `CCOC(=O)c1sc(NC(=O)C(C)Sc2nnc(CNC(=O)c3ccc(OC)cc3)n2-c2ccccc2OC)c(C(=O)OCC)c1C` (stereo unspecified) is 1.35%. In turn, `CCCCCCc1ccc(C(=O)N(CC(=O)Nc2cc(C(C)(C)C)nn2-c2ccc(Cl)c(Cl)c2)C(C)C)cc1` yielded an IFI of 1.91%. Next, `CC(CN1CCC(n2cc(C(=O)N3CCCC3)nn2)CC1)c1ccccc1` (stereo unspecified): 0.885%; `COc1cc(CNc2cc(OCCOc3ccc(Cl)cc3)cc(C(=O)NC3CCN(Cc4ccccc4)CC3)c2)ccc1OCc1ccccc1`: 7.14%. The figure for `CC(=O)N(/C=C1/Sc2ccccc2C1=O)c1ccc(C)cc1` is 7.69%. Next, `CCCCC(=O)NC(c1ccccc1)c1ccc2cccnc2c1O` (stereo unspecified): 12.5%; `CCn1c(SCC(=O)Nc2cccc(C)c2)nnc1-c1ccccc1`: 3.67%.

Consider `Cc1nc(N2CCN(c3ccccn3)CC2)c2c(C)c(C(=O)Nc3c(F)cccc3F)sc2n1`, for which the IFI is 2.35%. Next, `Cc1ccc(N2C(N)=NC(N)=NC2(C)C)c(C)c1`: 1.51%; `Cc1ccc2oc(=O)c3cnn(CC(=O)Nc4ccc(F)cc4Cl)c3c2c1`: 0%; `Cc1noc(C)c1S(=O)(=O)N(Cc1ccccc1)CC(O)CN1CCC(NC(=O)Cc2cccs2)C1` (stereo unspecified): 0.962%. The figure for `CC1=C(C(=O)OCC(C)C)C(c2ccc(OCc3ccccc3)cc2)C2=C(CC(c3ccccc3)CC2=O)N1` (stereo unspecified) is 3.53%; for `CCc1ccc(C(C)=NNc2nc(O)cc(-c3ccccc3)n2)cc1` it is 0%. Next, `CC(C)CNC(=O)c1cnc(NCCC2CCCN2C)nc1NCC1CCCCC1` (stereo unspecified): 2.88%; `CC(=O)N(C)C1=C(N2CCCC2)C(=O)c2ccccc2C1=O`: 0%; `COc1ccc2c(c1)C(C)(CC#N)C(=O)N2C` (stereo unspecified): 1.51%. For `OC(c1cc(C(F)(F)F)nc2c(C(F)(F)F)cccc12)C1CCCCN1` (stereo unspecified), the IFI is 2.42%.

The compound `CC1CN=C(c2ccc(NC(=O)c3ccc(C(=O)Nc4ccc(C5=NCC(C)N5)cc4)c(N)c3)cc2)N1` (stereo unspecified) registered an IFI of 3.57%. `CC(=O)N1c2ccccc2C(C)(c2ccc(Br)cc2)CC1(C)C` (stereo unspecified) displayed an IFI of 1.61%. `Nc1cc(-c2cccs2)n[nH]1` returned an IFI of 0%. The figure for `CC(C)CCN(CCC(C)C)CC(O)Cn1c2ccc(Cl)cc2c2cc(Cl)ccc21` (stereo unspecified) is 3.51%; for `Nc1c(C(=O)c2ccc(Br)cc2)sc2nc(-c3cccnc3)ccc12` it is 0%. The figure for `CC1=C(C(=O)OC(C)C)C(c2ccccc2Cl)C2=C(CC(c3ccccc3)CC2=O)N1` (stereo unspecified) is 2.35%; for `COc1ccc(NC(=O)CCCCCn2c(SCC(=O)NCC3CCCO3)nc3ccsc3c2=O)cc1` (stereo unspecified) it is 0%. Next, `CCOC(=O)c1[nH]c(C)c(CNc2cccc(OC)c2)c1C`: 0%.

For the compound `O=C(Nc1ccc(C2=NCCCN2)cc1)c1ccc(C(=O)Nc2ccc(C3=NCCCN3)cc2)cc1`, the IFI is 5.26%. The figure for `Cc1ccc(CN2C(=O)C(O)(CC(=O)c3ccccc3)c3ccccc32)cc1` (stereo unspecified) is 1.16%; for `COc1ccc(CCN2C(=S)NC3c4cccc(OC)c4OC2(C)C3C(=O)Nc2ccc(C)cc2C)cc1OC` (stereo unspecified) it is 0%; for `O=C(Cc1ccccc1)NCc1ccc(Nc2c(-c3cccnc3)nc3ccccn23)cc1` it is 4.17%. The figure for `FC(F)(F)c1cccc(Nc2nc3nonc3nc2Nc2ccc(Br)cc2)c1` is 22.2%. The figure for `COc1cccc(C2CC3(CC(C)(C)NC(=S)N3)Oc3cc(OC(C)=O)c(Cl)cc32)c1` (stereo unspecified) is 3.12%; for `CCCOc1ccc(Cc2c(C)nc3ccc(Br)cc3c2O)cc1` it is 0%; for `COC(=O)c1cn2c(=O)c3ccccc3nc2c2ccccc12` it is 0%. Regarding `CCCNC(=O)c1cc(NC(=O)c2cc(C(F)(F)F)cc(C(F)(F)F)c2)ccc1N1CCCCC1`, the IFI was 3.67%. The figure for `COc1cc(C(=O)Nc2cnc3ccccc3c2)ccc1-n1cnnn1` is 5.56%.

Compound `CCC(=O)N(C)CCCNc1ccnc2cc(Cl)ccc12` yielded an IFI of 3.74%. Next, `CC(C)(C)NC(=O)C(c1ccc(F)cc1)N(CCCN1CCOCC1)C(=O)c1ccc(-c2ccccc2)[nH]1` (stereo unspecified): 3.16%; `N#C/C(=C\NC1CCN(Cc2ccccc2)CC1)C(=O)c1cccs1`: 2.5%; `COc1ccc(Cn2nnnc2CN2CCc3ccccc3C2)cc1`: 1.51%. Next, `CC(C)(C)C(=O)Nc1ccc(C23CC4CC(CC(c5ccccc5)(C4)C2)C3)cc1`: 0%; `COC(=O)C1=C(C)NC2=C(C(=O)CC(c3ccc(OC)cc3)C2)C1c1ccccc1F` (stereo unspecified): 2.33%. The figure for `CC(Oc1cccc(Cl)c1)C(=O)N1CCc2ccccc21` (stereo unspecified) is 0%. In the case of `Cc1ccc(S(=O)(=O)NC(=O)Nc2ccc(N(C)C)cc2)cc1`, the IFI was determined as 3.2%. The figure for `CC(C)Cc1ccc(/C=C/C(=O)NC2CC2)cc1` is 0%. The figure for `CCN1C(=Cc2sc3ccccc3[n+]2C)C=Cc2cccc(C)c21` is 23.1%; for `O=C1Cc2c([nH]c3ccc(OCc4ccccc4)cc23)C2CC=CCC12` (stereo unspecified) it is 0%; for `CC(=O)N(C1=C(N2CCCCCC2)C(=O)c2ccccc2C1=O)C1CCCCC1` it is 7.14%. `O=C(NCCN1CCOCC1)c1ccc(Cl)cc1`: the IFI worked out at 0.599%. `COc1ccc(Nc2nc(N3CCCC3)c3ccccc3n2)cc1` came in with an IFI of 0%. Regarding `COc1ccccc1-n1c(=O)c2c3c(sc2n2c(C)nnc12)CCC3`, the IFI was determined as 0%. The figure for `COc1ccc(-c2cc(C(F)(F)F)n3ncc(C(=O)NCc4ccccc4)c3n2)cc1` is 2.17%.
